The list shows a part of the results.
B1: chr8:104433209:104433210:+_ENSG00000164934_ENST00000297579|hu_hu|FALSE|FALSE (ssRNA)
RNA: GGGAGUUCUACAGUCCGACGAUCAAAGCCUUCAUGUGCUUGUAUUGUACGGAUACAAUUCCGCUGAGUUAGAUUCCAAAUUCUAACCUCUCCAUCACACGCCCCAGAAAGGACAGUAGCCAGCUUCUCUGGAUGCUUUGCCAACAACAGAGGAUUGAGCAUCA
B2: 34754486_34754606_5801_CDS_ENSMUSG00000039967_ENSMUST00000047950|mouse|control|control (ssRNA)
RNA: GGGAGUUCUACAGUCCGACGAUCAUUAGAAUUUCUUGUAAAUGUUUUGGUACAUGAAGGUACUACACAUUUAAAUGGAGCAAAUUUUAAUUGAUUCUUCUUAAUUUCAAGAAUCAUCUCUGGAGUAUACUGAUGGAUUUUACCCAACAGAGGAUUGAGCAUCA
B3: 124533939_124534059_1210_CDS_ENSMUSG00000042763_ENSMUST00000064444|mouse|control|control (ssRNA)
RNA: GGGAGUUCUACAGUCCGACGAUCCAGAUACAGGCGAGUUGGCGUCGUCUUGGGGACAGCUUUCUCAAUCUGUGUGCCCUCGUGCCACUCAUUGAAGGAGGUGAUAGAGACUAUCUCGGGCCUCACAGUCAGGGCUGCCUGCAGCAACAGAGGAUUGAGCAUCA
B4: chr4:33586012:33586013:+_ENSMUSG00000028274_ENSMUST00000108153|mus_mus|motif|central (ssRNA)
RNA: GGGAGUUCUACAGUCCGACGAUCCGAGAUGCUAUUGCACACAGCCAUGGCUGUGUUGUAGGCAUUUGGGAAACUUUUGUCGGUCCUCUGUCUCAUGAAGACCCAGCUAUUGUUCUCAAAUUUGCAUUCUAUAAUUUUGUUGUCCAACAGAGGAUUGAGCAUCA
B5: chr8:97196980:97196981:+_ENSMUSG00000031776_ENSMUST00000034228|mus_mus|FALSE|FALSE (ssRNA)
RNA: GGGAGUUCUACAGUCCGACGAUCGCCUGCUGGUCUGGUGAACUCAUGUCAAUCACACCGGUUGUGCGAAGGUGGGACCUAGUGCCGCAGGUUGUUCUGGGAAGCUGGCGUAGAAGAUGACUUACACAGAGAAGUCACAACCAACAACAGAGGAUUGAGCAUCA
B6: 19967392_19969057_911_3pUTR_ENSMUSG00000002428_ENSMUST00000002502|mouse|control|control (ssRNA)
RNA: GGGAGUUCUACAGUCCGACGAUCUCCCAGAAUGGUGGUAGUUCUUUACUGUUCUCUCGUGCGAUCAUCCAAGCUAGAGCUUGUUUUUGGUGUGGAAGCAACGGUGUUUCAAUAGCCUCAGCUGGUUCCAUUUCAACAGUUCUACAACAGAGGAUUGAGCAUCA
B7: chr2:32339754:32339755:+_ENSG00000021574_ENST00000315285|hu_mus|motif|central (ssRNA)
RNA: GGGAGUUCUACAGUCCGACGAUCACCGGAGAGCCCUGCGGAGCCACUUUUCAGGACAGUUUUUGAUCGAGGCAAUGAAUUACGGGCAUGUGUUAAGGGGUCUUUCCUCUUCGGAACUGCUCCACUUUCUGACUGGAGAUGUCCCAACAGAGGAUUGAGCAUCA
B8: chr2:191069868:191069869:-_ENSG00000198130_ENST00000359678|hu_hu|motif|central (ssRNA)
RNA: GGGAGUUCUACAGUCCGACGAUCUAUAAAAACAGGCAGCAGGCUGGAUUUGGCCCACAUGCUGUAGAUUGCCAACCCAUGCGGCAAAAUAUACCUUAAAAGCCUGUCACCUCAAAAUUUCAAAUCACUGCUUCCCAAAGACUUCAACAGAGGAUUGAGCAUCA
B9: 46963340_46963460_1689_3pUTR_ENSMUSG00000025041_ENSMUST00000168536|mouse|control|control (ssRNA)
RNA: GGGAGUUCUACAGUCCGACGAUCUUCAUCAUGGCAGUGUGUGAUCUCCUGGGGGGCCAGCGGGAAGAGGUUGGGGGGCUUGAUCUCACUAAUGGACCUUGUAAGCUGGUGUCGCUUAUAGUCAGUGUCUUUGAAAUCCACUGACAACAGAGGAUUGAGCAUCA
B10: 98288003_98288123_2113_3pUTR_ENSG00000180543_ENST00000322128|human|control|control (ssRNA)
RNA: GGGAGUUCUACAGUCCGACGAUCACAGGCAGUUCUUGAGGUCCUUGUUGACCAGGAAGCCAACUGGGGCUGACAGCAACCCAGACAAAACUUAAUGGCUUGAUAGUGACACGGCAUGGCGCAGAUCUUGAUGAAAGUUCACCACAACAGAGGAUUGAGCAUCA
B11: 139362894_139366476_3788_CDS_ENSG00000148396_ENST00000313050|human|control|control (ssRNA)
RNA: GGGAGUUCUACAGUCCGACGAUCGCUUGCAUAGUAAUCGCUCUGACUGCUCCAUCCACUUUUGGAACUAUAGUAUCCUUCAGGAUAUCCUUGCCUGGGAGGUGGCCGUUCCGAGGAGUGGCUGGCUCGGGAGCUGGGCCGCUCCAACAGAGGAUUGAGCAUCA
B12: chr1:224553637:224553638:+_ENSG00000143771_ENST00000366856|hu_mus|FALSE|FALSE (ssRNA)
RNA: GGGAGUUCUACAGUCCGACGAUCCCUAUAUAUAUUCCACGUGGCGACAGGUAAGUUGAGAAGGAAGAUGAACCAGUGCAGGGAGACAAGCAUCAGCACAGUGACAAUGGUGUGGCCGACCAACUCCGGGAUCACCCACUUGUUCAACAGAGGAUUGAGCAUCA
B13: chr12:3252685:3252686:-_ENSMUSG00000020671_ENSMUST00000021001|perfect_dup|motif|central (ssRNA)
RNA: GGGAGUUCUACAGUCCGACGAUCUAACGUGAGGAACGCCUUUUCGAUGUUUAUAUUUGCUUUUGCACUAGUCUCAAAAAACCGGAUACCAUGCUCCCUUGCAAUCUGUUCUCCUUUUCCUUUAGGUACAACUCUUUUGUCGUCCAACAGAGGAUUGAGCAUCA
B14: chr16:94651144:94651145:+_ENSMUSG00000040785_ENSMUST00000117648|mus_hu|mus_mus_mus_hu_True|8_48 (ssRNA)
RNA: GGGAGUUCUACAGUCCGACGAUCAUUUUCUUGAAUCAAGUGGCGAAUAACAUAGUCCACUGCUUCAUUUAGAAAAUUUCUGCUAGAAAAGCAUGUUGUAUAGUCUUCUGUGCUCAAAACUUUCCAAGAGAGCAGCUCUUUGAGCAACAGAGGAUUGAGCAUCA
B15: 77926472_77926592_980_CDS_ENSG00000167291_ENST00000310924|human|control|control (ssRNA)
RNA: GGGAGUUCUACAGUCCGACGAUCGGAGCGCAUGUGGCCCAGGUCCACGCGGAACACGCCGCAAAUCUGCUCCAGGGCGCACACCCGCUGCGGCUCGUCCCAGCGUGGGGUCUGCAGGAGGCCGUUGCUGUCCGGGAACCGCAGCAACAGAGGAUUGAGCAUCA
B16: chr21:44329077:44329078:+_ENSG00000160194_ENST00000354250|hu_hu|FALSE|FALSE (ssRNA)
RNA: GGGAGUUCUACAGUCCGACGAUCCUCCCGGCCUGAGGAGGGCUGAGGCAUCCUGAAUUUUGAGAGUUCGAGGUUGAGGUCUAAGAAGGUGUACGUGCUGUAGUCAUGAUGCUGCAGGUUCUUGUAGGUAGUGUUGUCAAACGGCAACAGAGGAUUGAGCAUCA
B17: chr4:140556289:140556290:+_ENSMUSG00000036622_ENSMUST00000037055|mus_mus|mus_mus_mus_hu_False|18_48 (ssRNA)
RNA: GGGAGUUCUACAGUCCGACGAUCGAUGGAGCUCACCAGGCCCCCUUUUGCCGUGCAGAACCCUGUGCGGGUCACCACUGCCAGGACACGGGGUCCCACAUAGGCCCGGGCCUGCAAAAUGAGGGUGCCGCAGAAGAGUGUGUGCAACAGAGGAUUGAGCAUCA
B18: chr14:45963330:45963331:+_ENSMUSG00000021832_ENSMUST00000022380|perfect_dup|motif|central (ssRNA)
RNA: GGGAGUUCUACAGUCCGACGAUCGAUUUUCAGUAUGUCUAAUCUUGCUUGUUCAUUUGGCAAAUCAAUAUGUAUUUUUCGGUCGGAUCUUCCUGGACGCAGCAAAGCAGGAUCCAGUGUAUCUGGUCUGUUUGUAGCCAUGAUCAACAGAGGAUUGAGCAUCA
B19: chr11:77340908:77340909:-_ENSG00000074201_ENST00000525064|hu_hu|hu_hu_hu_mus_True|98_108 (ssRNA)
RNA: GGGAGUUCUACAGUCCGACGAUCGUUUCGGUCCCUGGAUAAUGCAUGUAAACUAAUGGUGGGGUAUUCCAGUGAGAAUCCUAAUCCCGAACCAUCUAACCAGGACAGGCGGCUCUCCGCGAUGUAAAGCGUGCCGGUGCCGAGCAACAGAGGAUUGAGCAUCA
B20: chr2:179515052:179515053:+_ENSMUSG00000000305_ENSMUST00000000314|mus_hu|mus_mus_mus_hu_False|68_98 (ssRNA)
RNA: GGGAGUUCUACAGUCCGACGAUCGCUGUCCCAUGCAGUGACGGUAAACGCCACCUGCUCGGAGGGGAUCUUCAACUCCCGGGUGGCGAAGACUGUCCCAUCUGCCCCAACUUUGAAGUCCAUGCUGUUGGUCUCAUAUUGUGUCAACAGAGGAUUGAGCAUCA
B21: chr10:89103549:89103550:-_ENSMUSG00000069539_ENSMUST00000105294|mus_hu|FALSE|FALSE (ssRNA)
RNA: GGGAGUUCUACAGUCCGACGAUCAUCUGUGGGUCUUUGUUGGGUCUGCUUUGCACCAGCAGGAGGAACACUCAAAGCAUUGAAGUUUGGCAAAGUGGGAGGUGUUCCCAGAGUCAUCUUGGUCACUCCAACUGUGCUUGGACUCAACAGAGGAUUGAGCAUCA
B22: chr7:151048522:151048523:+_ENSG00000013374_ENST00000566856|hu_mus|hu_hu_hu_mus_True|18_18 (ssRNA)
RNA: GGGAGUUCUACAGUCCGACGAUCCUGUUUCUUAUUUAUUACGAUCUUGAUGUAAUUUUCUUGAAAUCCGAAAGUUUCAGCUAUUUGACACCUCAGGUCUCUACCAGUGACAUGCAAUCGGGUCUCCAACAAGCUUUUCUUAUCCAACAGAGGAUUGAGCAUCA

What follows are binders tested against T1, UNK ZnF1-3 (human, UniProt Q9C0B0 31-174) (assay: nsRBNS (natural sequence RNA bind-n-seq); RBNS binding buffer (assumed for nsRBNS): 25 mM Tris pH 7.5, 150 mM KCl, 3 mM MgCl2, 0.01% Triton X-100, 500 ug/ml BSA, 20 U/ml SUPERase-In, 4 C; UNK is unkempt and MSI1 is Musashi-1; names of the RNAs are library labels; protein concentration not given here; high values mean tight binding).
T1 sequence: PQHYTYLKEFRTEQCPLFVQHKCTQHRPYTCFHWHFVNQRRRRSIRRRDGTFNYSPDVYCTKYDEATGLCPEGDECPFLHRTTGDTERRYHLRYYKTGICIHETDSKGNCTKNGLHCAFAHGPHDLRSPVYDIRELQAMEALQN

| Binder | binding signal |
| --- | --- |
| B1 | 0.874 enrichment R |
| B2 | 0.408 enrichment R |
| B3 | 0.784 enrichment R |
| B4 | 0.236 enrichment R |
| B5 | 0.932 enrichment R |
| B6 | 0.75 enrichment R |
| B7 | 1.3 enrichment R |
| B8 | 1.27 enrichment R |
| B9 | 0.884 enrichment R |
| B10 | 1.01 enrichment R |
| B11 | 0.614 enrichment R |
| B12 | 1.67 enrichment R |
| B13 | 0.436 enrichment R |
| B14 | 0.714 enrichment R |
| B15 | 0.294 enrichment R |
| B16 | 1.5 enrichment R |
| B17 | 1.5 enrichment R |
| B18 | 0.374 enrichment R |
| B19 | 1.19 enrichment R |
| B20 | 0.692 enrichment R |
| B21 | 0.63 enrichment R |
| B22 | 0.635 enrichment R |
